Assay results taken from PubChem BioAssay AID1508642 (National Center for Advancing Translational Sciences (NCATS), 2021).
Out of some 43,000 compounds screened, about 200 (0.47%) were called active. Roughly 12% stayed inconclusive and do not appear here. Calls come from the whole dose curve; as a rule, active = well fitted cell-killing curve with a large enough effect; inconclusive = small, poorly fitted or top-dose-only effect, or effect the other way; inactive = flat fitted curve, though single readings scatter. Some of the results follow.

assay: Cell viability qHTS assay in S16 Pmp22-F2sN cells; settings: S16 Pmp22-F2sN Schwann cells (luciferase reporters placed in the Pmp22 gene) viability, CellTiter-Glo, 24 h; series mostly up to 57.5 µM; activity change, negative = cytotoxicity: at the top concentration; note: nearly all actives have a fitted effect of over 65% in size
Summary of the method: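 S16 Schwann cells carrying the Pmp22-F2sN reporter, seeded in 1536-well format, were exposed to library compounds for 24 h at 37C. Viability was read as CellTiter-Glo luminescence after 15 min at room temperature.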
% is set by controls: 0 for no effect and ±100 for the full control effect; potency is the fitted concentration of half-maximal effect.

Row | Structure (SMILES) | activity change, negative = cytotoxicity | Potency
1 | Cc1ccc(Cl)cc1NC(=O)c1oc2c(c1C)-c1[nH]ncc1CC2 | inactive: -2.38% | –
2 | COc1ccc(N(Cc2cccs2)C(=O)COc2cccc(Cl)c2)cc1 | inactive: -6.26% | –
3 | CCOC(=O)c1cnc2c(Cl)cccc2c1NCCN1CCOCC1 | inactive: 6.01% | –
4 | COC(=O)CCSc1nc2sc3c(c2c(=O)n1Cc1ccccc1)CCC(C(C)(C)C)C3 (configuration not stated) | inactive: -1.57% | –
5 | COc1ccc(NCc2cc3cc4c(cc3n(CC(=O)Nc3ccc(F)cc3F)c2=O)OCO4)cc1 | inactive: -25.3% | –
6 | CCc1ccccc1NS(=O)(=O)c1ccc(OC)c2ncccc12 | inactive: -25.5% | –
7 | CCn1c2ccccc2c2nnc(N3CCN(c4cc(C)ccc4C)CC3)nc21 | inactive: -5.76% | –
8 | Fc1ccc(-c2nc(Nc3cccc(Cl)c3)nc3c2COc2ccccc2-3)cc1 | inactive: -17.6% | –
9 | Cc1ccc(-n2ncc3c(NCCCN4CCOCC4)ncnc32)cc1 | inactive: 0.677% | –
10 | COc1cccc(-n2c(=O)c3c(C)c(C(=O)N(C)C)sc3n(Cc3ccc(F)cc3Cl)c2=O)c1 | inactive: -5.25% | –
11 | COc1ccc(NC(=O)C2Cc3ccccc3N2C(=O)c2ccccc2)c(OC)c1 (configuration not stated) | inactive: 1.97% | –
12 | CCOc1ccccc1NC(=O)c1cc2c(Cl)nc3ccccc3c2s1 | inactive: -3.31% | –
13 | COc1ccc(N2CCN(S(=O)(=O)c3ccc4c(c3)CC(C)N4C(C)=O)CC2)cc1 (configuration not stated) | inactive: -9.96% | –
14 | O=C(Nc1ccc(Br)cc1F)c1cc(S(=O)(=O)NCc2ccc(F)cc2)ccc1F | inactive: -6.78% | –
15 | COc1ccc(NC(=O)c2cc3c(s2)-c2c(C)cccc2OC3)c(OC)c1 | inactive: -10.1% | –
16 | COc1ccc(CCNC(=O)c2cc3c(-c4ccccc4F)nn(C)c3s2)c(OC)c1 | inactive: -8.51% | –
17 | CSc1ncc(C(=O)Nc2ccccc2C(=O)c2ccccc2)c(C(F)(F)F)n1 | inactive: -6.39% | –
18 | Fc1ccc(-n2cc(-c3ccccc3)c3c(NC4CCCCC4)ncnc32)cc1 | inactive: -23.1% | –
19 | CCOC(=O)c1cccc(NC(=O)c2cc3c(=O)n(Cc4ccccc4)ccc3nc2C)c1 | inactive: 0.0387% | –
20 | CCCCNc1nc(Oc2ccc(=O)[nH]n2)nc(N(C)C)n1 | inactive: -13.6% | –
21 | C=C(C)Cn1c(=O)c2c(nc3n2CCN3c2ccc(CC)cc2)n(C)c1=O | inactive: 0.0162% | –
22 | CCC(=O)N1CCc2cc(S(=O)(=O)NC(Cc3ccccc3)C(=O)Nc3ccc(C)cc3)ccc21 (configuration not stated) | inactive: 1% | –
23 | Cc1ccc(NC(=O)c2sc3nc(-c4cc5ccccc5oc4=O)[nH]c(=O)c3c2C)c(C)c1 | inactive: -7.3% | –
24 | COc1cc(C(=O)Nc2cc3c(cc2C)n(C)c(=O)c(=O)n3C)cc(OC)c1OC | inactive: -13.3% | –
25 | CCOc1ccc(-n2c(SCc3ccc(C(=O)OC)o3)nc3c([nH]c4ccccc43)c2=O)cc1 | inactive: 18.5% | –

Row | Structure (SMILES) | activity change, negative = cytotoxicity | Potency
26 | COc1cc(C(=O)Nc2cc(C)ccc2OCc2cc(=O)n3c(C)csc3n2)cc(OC)c1OC | inactive: -3.82% | –
27 | O=C(CC1Sc2ccc(C(F)(F)F)cc2NC1=O)Nc1ccc(Cl)c(C(F)(F)F)c1 (configuration not stated) | inactive: -13.8% | –
28 | Cc1ccc2occ(CC(=O)Nc3ccc(S(N)(=O)=O)cc3)c2c1 | inactive: 4.26% | –
29 | COc1ccc(-c2nc(SCC(=O)NCCCc3ccccc3)n[nH]2)cc1 | inactive: -7.36% | –
30 | Cc1cc(OCC(=O)Nc2sc3c(c2C(N)=O)CCCC3)ccc1C(C)C | inactive: -3.04% | –
31 | COc1ccc(NC(=O)Cn2c(C)c3cnn(-c4ccccc4)c(=O)c3c2C)c(OC)c1 | inactive: -10% | –
32 | Cc1ccc(N(CC(=O)NC(C)c2ccccc2)S(=O)(=O)c2c(C)noc2C)cc1 (configuration not stated) | inactive: -18.8% | –
33 | Cc1cccc(-c2noc(C3CC(=O)N(c4ccc5c(c4)OCCO5)C3)n2)c1 (configuration not stated) | inactive: 16.4% | –
34 | COc1ccc(C(=O)CCC(=O)Nc2ccccc2C)cc1 | inactive: 3.73% | –
35 | COc1ccccc1NC(=O)CSCc1cc(=O)c2c(C)cc(C)cc2[nH]1 | inactive: 11.7% | –
36 | Cc1cccc(NC(=O)C2CCCN(S(=O)(=O)c3c(C)noc3/C=C/N(C)C)C2)c1C (configuration not stated) | inactive: 9.17% | –
37 | CCC(Sc1nncn2c1cc1sccc12)C(=O)Nc1cccc(OC)c1 (configuration not stated) | inactive: -20.2% | –
38 | CC(C)(C)C1CCc2nc(NC(=O)Cc3ccc(Cl)cc3)sc2C1 (configuration not stated) | inactive: -15% | –
39 | Cc1cc(C)c2c(=O)cc(CSCC(=O)Nc3nnc(C)s3)[nH]c2c1 | inactive: 21.3% | –
40 | CCCNC(=O)Nc1cc(C(=O)NCc2cccc(OCC)c2)ccc1N1CCCC1 | inactive: -0.0036% | –
41 | COc1ccc(N(C)C(=O)NCc2noc3ccc(C)cc23)c(OC)c1 | inactive: 9.28% | –
42 | CCOC(=O)CC(NC(=O)Cn1nnc(-c2ccccc2C)n1)c1ccc(OC)cc1 (configuration not stated) | inactive: -4.87% | –
43 | Cc1cc2nc3c(=O)n(C)c(=O)n(C)c3nc2cc1N=CN(C)C | inactive: -3.19% | –
44 | CCC(=O)N1CCc2cc(Br)cc(S(=O)(=O)CCC(=O)Nc3ccccc3C)c21 | inactive: -1.75% | –
45 | CC(C)(C)c1ccc(C(=O)Nc2ccccc2C(=O)OCc2cc(=O)n3ccsc3n2)cc1 | inactive: 1.94% | –
46 | Cc1ccc(CN2CCN(C3CCN(C(=O)OC(C)(C)C)CC3)C(=O)C2=O)cc1 | inactive: -3.86% | –
47 | Fc1ccc(CNc2ncnc3c2c(-c2ccccc2)cn3-c2ccccc2)cc1 | inactive: 3.88% | –
48 | Cn1c(=O)n(C)c2cc(S(=O)(=O)Nc3ccccc3C(=O)O)ccc21 | inactive: 3.29% | –
49 | Cc1ccc(C)c(NC(=O)CCNS(=O)(=O)c2ccc3c(c2)CCCC(=O)N3)c1 | inactive: -4.69% | –
50 | CN(C(=O)CSc1nnc2[nH]c(=O)cc(-c3ccccc3)n12)c1ccccc1 | inactive: 1.62% | –

Row | Structure (SMILES) | activity change, negative = cytotoxicity | Potency
51 | COCCNC(=O)c1ccc2c(c1)N(Cc1cccc(Cl)c1)C(=O)c1ccccc1S2=O (configuration not stated) | inactive: -9.37% | –
52 | CCOC(=O)c1cc(-c2ccccc2)n(CC(=O)NCc2ccccc2OC)c1C | inactive: 13.8% | –
53 | O=C(Nc1ccc(F)c(F)c1)C1CCCN(S(=O)(=O)c2cccc3nonc23)C1 (configuration not stated) | inactive: 4.06% | –
54 | Cc1c2cnn(-c3ccccc3)c(=O)c2c(C)n1CCCC(=O)Nc1ccc(F)cc1F | inactive: -13.2% | –
55 | CCOC(=O)c1cc(-c2ccccc2)n(CCCC(=O)Nc2ccc(CC)cc2)c1C | inactive: -26.1% | –
56 | Cc1c(Cl)cccc1NC(=O)CCS(=O)(=O)c1ccc(Br)s1 | inactive: 5.46% | –
57 | CC(C)(C)C1CCc2onc(C(=O)Nc3sc4c(c3C(N)=O)CCCC4)c2C1 (configuration not stated) | inactive: -4.21% | –
58 | O=C(c1ccc2c(Cl)c3c(nc2c1)CCCC3)N1CCN(c2ccccc2)CC1 | inactive: 2.15% | –
59 | CCOc1ccccc1NS(=O)(=O)c1c(-c2ccc(C)cc2)csc1C(=O)OC | inactive: -5.36% | –
60 | COc1ccc(-c2noc(C3CC(=O)N(c4cc(C)cc(C)c4)C3)n2)cc1 (configuration not stated) | inactive: 2.01% | –
61 | COc1ccc(/C=C/c2nc(C#N)c(N3CCN(c4ccccc4)CC3)o2)cc1OC | inactive: 12.1% | –
62 | CCOC(=O)c1c(C)c(C(=O)NCCc2ccc(OC)cc2)c(C)n1C | inactive: -2.75% | –
63 | CCc1nn(CC(=O)Nc2cccc(C)c2C)c(=O)c2cc3sccc3n12 | inactive: 2.3% | –
64 | CC1=C(C(=O)Nc2ccc(Cl)cc2)C(C(C)C)n2nc(SCc3cccc(C)c3)nc2N1 (configuration not stated) | inactive: -0.654% | –
65 | CCC(C)NC(=O)c1ccc2c(c1)N(Cc1ccccc1)C(=O)c1ccccc1S2(=O)=O (configuration not stated) | inactive: -0.601% | –
66 | CN1CCN(CCCNC(=O)c2cnn(-c3ccccc3)c2C2CCN(C(=O)OC(C)(C)C)CC2)CC1 | inactive: 1.76% | –
67 | CCC(Oc1ccccc1)C(=O)Nc1ccccc1OCc1cc(=O)n2ccccc2n1 (configuration not stated) | inactive: 3.29% | –
68 | CCc1ccccc1NC(=O)c1cc(S(=O)(=O)NCCc2ccc(OC)c(OC)c2)ccc1F | inactive: -2.06% | –
69 | CC(=O)Nc1c(C)nn(-c2ccccc2)c1N1CCC(C(=O)Nc2cc(Cl)ccc2C)CC1 | inactive: 6.13% | –
70 | Cc1nnc(NC(=O)c2nc(S(=O)(=O)Cc3ccccc3)ncc2Cl)s1 | – | active: 5.01 µM
71 | Cc1nc2c(-c3ccccc3)c(C)nn2c(C)c1CCC(=O)NCc1cccc(Cl)c1 | inactive: 18.7% | –
72 | CCOc1ccc(NC(=O)C(C)Sc2nnc3cc(C)c4ccccc4n23)cc1 (configuration not stated) | inactive: 4.28% | –
73 | CCOC(=O)C1CCCN(c2ncnc3c2cnn3-c2ccc(C)c(Cl)c2)C1 (configuration not stated) | inactive: 5.3% | –
74 | Cn1c(=O)c2c(SCC(=O)NCc3ccco3)nc(-c3ccccc3Cl)nc2n(C)c1=O | inactive: 2.45% | –
75 | Cc1ccc(NC(=O)CSc2nc3c(c(=O)[nH]2)CN(Cc2ccc4c(c2)OCO4)CC3)cc1C | inactive: 9.37% | –

Row | Structure (SMILES) | activity change, negative = cytotoxicity | Potency
76 | CCOC(=O)c1ccc(NC(=O)c2oc3ccc4c(c3c2C)C(=O)CC(C)(CC)O4)cc1 (configuration not stated) | inactive: 2.13% | –
77 | CC(C)c1ccc(CNCCSc2nnnn2C)cc1 | inactive: -9.79% | –
78 | COc1ccc(C)cc1NC(=O)C(=O)NCCc1csc(-c2ccc(C)cc2)n1 | inactive: 2.35% | –
79 | Cc1cccc(NC(=O)C(=O)NCC(c2cccnc2)N2CCOCC2)c1 (configuration not stated) | inactive: -1.04% | –
80 | CCCOc1ccc(C2c3c(-c4ccccc4O)n[nH]c3C(=O)N2Cc2ccncc2)cc1OCC (configuration not stated) | inactive: -21.7% | –
81 | COc1ccccc1C(=O)Nc1nc2ccc(S(=O)(=O)N3CCCC3)cc2s1 | inactive: -3.87% | –
82 | NCCc1nnc(SCc2ccc(Cl)cc2)o1 | inactive: 11% | –
83 | Clc1ccc(CCNc2ncnc3c2c(-c2ccccc2)cn3-c2ccccc2)cc1 | inactive: -11.2% | –
84 | COc1ccc(C(=O)CN2C(=O)N(c3cc(C)cc(C)c3)S(=O)(=O)c3ccccc32)cc1 | inactive: 2.05% | –
85 | Cc1ccccc1CS(=O)(=O)Cc1ccc(C(=O)NCCc2ccccc2)o1 | inactive: -5.8% | –
86 | CCOC(=O)c1ccc(Nc2c(-c3ccc(O)cc3)nc3nc[nH]n23)cc1 | inactive: -25.9% | –
87 | COc1cc(C(=O)Nc2cc(C)ccc2OCc2cc(=O)n3cc(C)sc3n2)cc(OC)c1OC | inactive: -0.141% | –
88 | CCCCC(=O)Nc1cccc(OCc2cc(=O)n3ccccc3n2)c1 | inactive: 1.16% | –
89 | Cc1ccc(Nc2c(-c3ccc(C)cc3)nc3cnccn23)cc1 | inactive: -20.8% | –
90 | COc1ccccc1CNC(=O)Cn1ncc2c(=O)oc3ccc(C)cc3c21 | inactive: 0.751% | –
91 | CCCn1c(=O)n(-c2ccccc2)c(=O)c2sc3ccccc3c21 | inactive: 7.64% | –
92 | CN(C(=O)CCNC(=O)Cn1cnc2ccccc2c1=O)c1ccccc1F | inactive: 9.82% | –
93 | CCOc1ccc(CCNC(=O)CN2CCN(Cc3ccc(F)cc3Cl)C2=O)cc1OCC | inactive: 11.8% | –
94 | COc1cccc(-c2nc3c(c(SCc4ccccc4)n2)Cc2c(CO)cnc(C)c2O3)c1 | inactive: 12.1% | –
95 | NC(=O)c1cc(S(=O)(=O)NCc2ccccc2)cs1 | inactive: 0.797% | –
96 | C=Cc1ccc(CSc2nc(-c3ccc(OC)cc3)nc3c2Cc2c(CO)cnc(C)c2O3)cc1 | inactive: -14.2% | –
97 | CCOC(=O)CSc1nc2cc3c(cc2c(=O)n1CCCC(=O)NCc1ccc2c(c1)OCO2)OCO3 | inactive: 14.6% | –
